# The other results are listed elsewhere or left out.
# B1: PhoQ; a variant is named by its letters at X, in order, P23837 (parent)
# chain: MKKLLRLFFPLSLRVRFLLATAAVVLVLSLAYGMVALIGYSVSFDKTTFRLLRGESNLFYTLAKWENNKLHVELPENIDKQSPTMTLIYDENGQLLWAQRDVPWLMKMIQPDWLKSNGFHEIEADVNDTSLLLSGDHSIQQQLQEVREDDDDAEMTHSVAVNVYPATSRMPKLTIVVVDTIPVELKSSYMVWSWFIYVLSANLLLVIPLLWVAAWWSLRPIEALAKEVRELEEHNRELLNPATTRELTSLVRNLNRLLKSERERYDKYRTTLTDLTHSLKTPLXXLQXXLRSLRSEKMSVSDAEPVMLEQISRISQQIGYYLHRASMRGGTLLSRELHPVAPLLDNLTSALNKVYQRKGVNISLDISPEISFVGEQNDFVEVMGNVLDNACKYCLEFVEISARQTDEHLYIVVEDDGPGIPLSKREVIFDRGQRVDTLRPGQGVGLAVAREITEQYEGKIVAGESMLGGARMEVIFGRQHSAPKDE
# Variants of: B1
# Experiment: enrichment ratio after two sorts for PhoP signalling (ratio (wild type AVST 3.29)); higher = more functional
# Conditions: with PhoP (E. coli)
row,Variant,enrichment ratio
1,YPGW,≤ 0.25
2,KDRE,≤ 0.25
3,TTKR,≤ 0.25
4,YGHN,≤ 0.25
5,DNRW,≤ 0.25
6,EGNI,≤ 0.25
7,QVCA,≤ 0.25
8,IRWA,≤ 0.25
9,WEQW,≤ 0.25
10,IQYT,≤ 0.25
11,TRPI,≤ 0.25
12,HAIK,≤ 0.25
13,WRMF,≤ 0.25
14,GPIQ,≤ 0.25
15,WMHI,≤ 0.25
16,SVDP,≤ 0.25
17,DTYS,≤ 0.25
18,RVIL,≤ 0.25
19,VLHV,≤ 0.25
20,KGMS,≤ 0.25
21,NDCI,≤ 0.25
22,TWDP,≤ 0.25
23,DGHR,≤ 0.25
24,PQAF,≤ 0.25
25,HNFP,≤ 0.25

row,Variant,enrichment ratio
1,RYRF,≤ 0.25
2,WQTN,≤ 0.25
3,MRHH,≤ 0.25
4,VFID,≤ 0.25
5,RQNY,≤ 0.25
6,MRYF,≤ 0.25
7,DKMI,≤ 0.25
8,QLRQ,≤ 0.25
9,SDGN,≤ 0.25
10,QWTF,≤ 0.25
11,LFII,≤ 0.25
12,DFNI,≤ 0.25
13,HCLD,≤ 0.25
14,SCEN,≤ 0.25
15,TCYF,≤ 0.25
16,DERD,≤ 0.25
17,DRSH,≤ 0.25
18,WGQR,≤ 0.25
19,GDHF,≤ 0.25
20,VFRN,≤ 0.25
21,TAHR,≤ 0.25
22,DSAV,≤ 0.25
23,YPRN,≤ 0.25
24,NLNV,≤ 0.25
25,TGRW,≤ 0.25

row,Variant,enrichment ratio
1,SMRD,≤ 0.25
2,LETA,≤ 0.25
3,FWRD,≤ 0.25
4,LAMG,2.14
5,SISK,12.1
6,WFCN,≤ 0.25
7,MVVI,≤ 0.25
8,WWSA,≤ 0.25
9,RQPE,≤ 0.25
10,GDTD,≤ 0.25
11,IMIC,≤ 0.25
12,FQCN,≤ 0.25
13,LMFA,≤ 0.25
14,NLVD,≤ 0.25
15,IAKD,≤ 0.25
16,ADFL,≤ 0.25
17,HCEP,≤ 0.25
18,DHDI,≤ 0.25
19,PPQE,≤ 0.25
20,INNG,≤ 0.25
21,KYLM,≤ 0.25
22,PMRY,≤ 0.25
23,GMNS,≤ 0.25
24,HGVK,≤ 0.25
25,APWK,≤ 0.25

row,Variant,enrichment ratio
1,GDAS,≤ 0.25
2,WRIF,≤ 0.25
3,QRTQ,≤ 0.25
4,RDNN,≤ 0.25
5,AVFM,≤ 0.25
6,YKSL,≤ 0.25
7,LLLK,≤ 0.25
8,MLMR,≤ 0.25
9,LSAR,≤ 0.25
10,LFQC,≤ 0.25
11,MIYA,≤ 0.25
12,EIPS,≤ 0.25
13,WICM,≤ 0.25
14,EHIN,≤ 0.25
15,FGIS,≤ 0.25
16,MART,≤ 0.25
17,DFTM,3.33
18,IKCN,≤ 0.25
19,YNQK,≤ 0.25
20,QEFK,≤ 0.25
21,DSLR,≤ 0.25
22,QRHD,≤ 0.25
23,KRIE,≤ 0.25
24,VHVI,≤ 0.25
25,DMPE,≤ 0.25

row,Variant,enrichment ratio
1,EDAN,≤ 0.25
2,KDDA,≤ 0.25
3,LYAP,≤ 0.25
4,NFPE,≤ 0.25
5,DWCT,≤ 0.25
6,MVWN,13.3
7,AMAE,0.326
8,NPHA,≤ 0.25
9,LRLG,≤ 0.25
10,KFGH,≤ 0.25
11,WDYI,≤ 0.25
12,ERSA,≤ 0.25
13,RLIA,≤ 0.25
14,DKLM,≤ 0.25
15,IAKR,≤ 0.25
16,IPCI,≤ 0.25
17,TRND,≤ 0.25
18,PGNQ,≤ 0.25
19,PKYR,≤ 0.25
20,KRIK,≤ 0.25
21,YALP,≤ 0.25
22,GLMR,≤ 0.25
23,GPLH,≤ 0.25
24,AAFN,≤ 0.25
25,YPNE,≤ 0.25

row,Variant,enrichment ratio
1,VKMW,≤ 0.25
2,WHNR,≤ 0.25
3,SFYG,≤ 0.25
4,QHMG,≤ 0.25
5,HMRA,≤ 0.25
6,DCNL,≤ 0.25
7,MRLD,≤ 0.25
8,HGLC,2.19
9,FCSQ,≤ 0.25
10,QTLQ,≤ 0.25
11,YLKD,≤ 0.25
12,QRRC,≤ 0.25
13,IMAY,≤ 0.25
14,RFFE,≤ 0.25
15,LEFR,≤ 0.25
16,LFWV,≤ 0.25
17,TKGY,6.36
18,EDYT,≤ 0.25
19,LMTP,≤ 0.25
20,TEHI,14.2
21,GMHT,≤ 0.25
22,RWAH,≤ 0.25
23,TPDD,≤ 0.25
24,FHFK,≤ 0.25
25,VTSS,≤ 0.25

row,Variant,enrichment ratio
1,TNWW,≤ 0.25
2,MCWE,≤ 0.25
3,QEDQ,≤ 0.25
4,SHVP,≤ 0.25
5,QDLP,≤ 0.25
6,LIQN,≤ 0.25
7,MNWL,10
8,PWGC,≤ 0.25
9,RGPF,≤ 0.25
10,EALL,5.01
11,HICW,≤ 0.25
12,DYHD,≤ 0.25
13,PIIS,≤ 0.25
14,KNHH,≤ 0.25
15,SNIM,≤ 0.25
16,RSGM,≤ 0.25
17,LMWE,≤ 0.25
18,GENN,≤ 0.25
19,MASG,1.26
20,NCPE,≤ 0.25
21,LCNQ,≤ 0.25
22,AHNW,≤ 0.25
23,MIMP,≤ 0.25
24,VCYS,0.518
25,ARNC,≤ 0.25

row,Variant,enrichment ratio
1,NGMF,≤ 0.25
2,INQR,≤ 0.25
3,HADK,≤ 0.25
4,RWLV,≤ 0.25
5,TIYY,≤ 0.25
6,MCTK,≤ 0.25
7,MRNN,≤ 0.25
8,SEAW,0.438
9,NAMN,≤ 0.25
10,TALA,13.8
11,DPAN,≤ 0.25
12,RHPW,≤ 0.25
13,VKGC,≤ 0.25
14,PEHH,≤ 0.25
15,DKWL,≤ 0.25
16,GGAA,≤ 0.25
17,KQWN,≤ 0.25
18,GLHA,≤ 0.25
19,MCIH,≤ 0.25
20,QALV,7.32

# Reference: a collection of fitness landscapes (doi:10.1126/science.1257360)
